This passage reports binding signal results from article PMC6212790.

The list shows a part of the results. At the low end of the ranking the order means little.

The assay concerns the target T1, GST-Rok-C97-191 (UniProt O34857).
T1 sequence: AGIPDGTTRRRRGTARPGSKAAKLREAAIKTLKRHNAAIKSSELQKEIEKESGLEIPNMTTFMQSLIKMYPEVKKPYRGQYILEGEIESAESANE
Briefly: protein binding microarray.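 Note: rank score from −0.5 (least bound) to 0.5 (best bound).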 As to conditions: Rok is a gene silencer of Bacillus subtilis; high values mean tight binding; most listed sequences are background and not binding sites; double strand, one strand shown.
AGTTATAA yielded a binding signal of 0.296 E-score.
With CAATACAC the figure was 0.161 E-score; with AGAAGGGG, -0.287 E-score.
In the case of ACGCACCT it was -0.133 E-score; in that of AGCACCCG, -0.304 E-score.
Turning to AAATGTGG, the binding signal is 0.124 E-score.
With TCAAGAGA the figure was 0.0592 E-score.
In the case of AAGAGCTC it was -0.153 E-score.
GACTTGGC yielded a binding signal of -0.0709 E-score.
For the sequence AGTACTAT, the binding signal amounted to 0.367 E-score.
In the case of ATCTTTAA it was 0.045 E-score; in that of CAGTAAAG, -0.0701 E-score; in that of CTTGATTA, -0.0437 E-score.
Sequence CATTACAG came in with a binding signal of -0.00725 E-score.
Turning to CATGGAGA, the binding signal was determined as 0.0656 E-score.
In the case of CTAAATGC it was -0.0315 E-score.
The sequence CCGGATAA yielded a binding signal of 0.0427 E-score.
In the case of AGTCGGTC it was -0.135 E-score; in that of ACCGCTGC, -0.32 E-score; in that of CTGAAACC, 0.000604 E-score.
In the case of CGCCGTCC it was -0.134 E-score; in that of AGTTTAGA, 0.184 E-score.
Take CGAGACTA: the binding signal was determined as 0.186 E-score.
With GCTACAAC the figure was 0.131 E-score.
With GCCTGTAA the figure was 0.00953 E-score; with CACAAGTA, 0.205 E-score; with TCACCTGA, 0.0254 E-score.
In the case of TACGCGTA it was 0.238 E-score.
The sequence CTGCTCAC returned a binding signal of -0.147 E-score.
Turning to ACTCCCAC, the binding signal was -0.15 E-score.
ACTATCGG showed a binding signal of 0.065 E-score.
As to CAAACCCC, the binding signal is -0.303 E-score.
In the case of CTAATTGA it was 0.15 E-score; in that of ATTCGACG, 0.193 E-score; in that of CAGAACAG, -0.048 E-score.
With ACATTCGG the figure was 0.0217 E-score; with GCTGACTA, 0.189 E-score; with GAAGGCGC, -0.208 E-score.
With CGTTGCCC the figure was -0.248 E-score.
Regarding ATAAGCTA, the binding signal came to 0.261 E-score.
With CTCTTAAG the figure was -0.23 E-score; with CATTTGGG, -0.0148 E-score; with GACATACC, 0.0094 E-score.
With CTTTAGTC the figure was -0.102 E-score; with AGAAATAA, 0.316 E-score; with AGTGATGC, -0.0675 E-score.
With GGCACGTA the figure was -0.00215 E-score; with CAGCAAGG, -0.207 E-score.
With ACTTGTCT, the binding signal is -0.0197 E-score.
With GCGGGTAC the figure was -0.172 E-score; with AATCTTTG, 0.00627 E-score.
In the case of TGCGCACA it was -8.28e-05 E-score; in that of CGGACGAC, -0.141 E-score.
In the case of AGCTGGCC it was -0.0688 E-score; in that of ATGTGGCA, -0.105 E-score.
In turn, GCGTGGAC returned a binding signal of -0.32 E-score.
With CAAGCTCG the figure was -0.179 E-score; with GAACCCTA, 0.0074 E-score.
In the case of CCGACCAA it was -0.101 E-score; in that of CCTTAACG, -0.152 E-score.
In the case of GGGGATCA it was -0.173 E-score; in that of CTTTTGGC, -0.159 E-score.
In the case of AACGAGAC, the binding signal was 0.0597 E-score.
In the case of AGAAGCCA it was -0.0931 E-score; in that of CAAAAGAA, -0.13 E-score.
Consider GATTGATA, for which the binding signal was 0.233 E-score.
With ACGCGGAG the figure was -0.0772 E-score; with CGCATTGC, -0.0256 E-score; with CGTACTCA, -0.00471 E-score.
In the case of CTCGTCGA it was -0.125 E-score; in that of AGAGCCTG, -0.0987 E-score; in that of AGTTGCGG, -0.0107 E-score.
In the case of CCTGTCAG it was -0.131 E-score; in that of CGTACAGC, -0.156 E-score; in that of ACTGTTCG, 0.0167 E-score.
In the case of CCCTGCCA, the binding signal is -0.324 E-score.
With ACATGGGA the figure was 0.0667 E-score.
As for CAACCGTG, the binding signal was -0.0369 E-score.
In the case of GCGGCATA it was -0.0162 E-score.
In the case of AAGATGCA it was -0.109 E-score.
AGGGGGGC registered a binding signal of -0.424 E-score.
With ATTGTATG the figure was 0.217 E-score; with CGTATTTC, 0.115 E-score.
With AACCTAGC the figure was -0.107 E-score; with CAGCATAA, 0.0581 E-score; with ACAGCCCT, -0.0912 E-score.
With ATGCGGAG the figure was -0.314 E-score.
ACAAAGGC yielded a binding signal of -0.173 E-score.
ACCTGTCG yielded a binding signal of -0.0938 E-score.
In the case of CAGGGCCA it was -0.145 E-score; in that of CGCCGAAA, -0.0722 E-score; in that of ATACCAGC, 0.165 E-score.
With ACCAAGCG the figure was -0.238 E-score; with CTTAGTTC, 0.142 E-score.
In the case of GAGATGGC it was -0.172 E-score; in that of GCCCCGCA, -0.21 E-score.
Sequence AACAATTG registered a binding signal of 0.168 E-score.
With ATAGTTAC the figure was 0.254 E-score.
In the case of GTTCGAAA it was -0.0791 E-score; in that of GCAACTGA, -0.153 E-score; in that of CGGAAAAG, 0.000626 E-score.
In the case of TAGGATCA it was 0.0651 E-score; in that of CTTAAGAC, -0.104 E-score; in that of CCCCAGGC, -0.216 E-score.
In the case of TTATAAAA, the binding signal turned out to be 0.218 E-score.
In the case of CGGCAACG it was -0.127 E-score; in that of TGTTAGAA, 0.14 E-score.
With GCAGTGGA the figure was -0.265 E-score.
In the case of CTTGCCGC it was -0.0699 E-score.
CTCCCGGA yielded a binding signal of -0.187 E-score.
With TGAAGCAA the figure was -0.158 E-score.
In the case of TAGAAGGA it was 0.153 E-score.
With CAAATATC the figure was 0.231 E-score; with ACGACGGA, -0.00652 E-score.
CGAGGCGA: the binding signal is -0.0794 E-score.
In the case of AACATGAA it was 0.091 E-score.
In turn, TAAGTCCA came in with a binding signal of 0.0886 E-score.
In the case of TATTAATA it was 0.352 E-score; in that of CCTAGAAA, 0.16 E-score; in that of CTTTAAAA, 0.0338 E-score.
With CCGGTTAG the figure was -0.0479 E-score; with GTAACACA, 0.138 E-score; with TAGGGATA, 0.114 E-score.
With ACGGCCTC the figure was -0.152 E-score; with CCCGACGC, -0.213 E-score; with GTTCAATA, 0.198 E-score.
Regarding GTCCTGCA, the binding signal is -0.236 E-score.
The sequence GGGGCGAA gave a binding signal of -0.168 E-score.
With CTAATAAG the figure was 0.127 E-score; with TGGGCTAA, -0.0359 E-score; with AAAACGCA, -0.035 E-score.
In the case of AAGATCCC it was 0.148 E-score; in that of CGAATCCC, -0.203 E-score; in that of AGCGGGAG, -0.145 E-score.
In the case of TGATAACA it was 0.072 E-score; in that of GTTCTACA, 0.247 E-score; in that of CGGTCGGA, -0.214 E-score.
Sequence CAACTGTC registered a binding signal of -0.0699 E-score.
With TCACATCA the figure was 0.134 E-score.
In the case of TCTTGACA it was 0.0211 E-score; in that of GTGAAACA, -0.0756 E-score.
With CCAGGGCA the figure was -0.237 E-score.
Turning to AGAGGTGA, the binding signal was -0.0938 E-score.
With CGTGCACC the figure was -0.199 E-score; with GTAGGGCA, -0.0192 E-score.
In the case of ATTAGGCC it was 0.0349 E-score; in that of CGCTTGAC, -0.197 E-score; in that of ATGATTGA, 0.135 E-score.
Regarding AATCCTTG, the binding signal came out at 0.0297 E-score.
For the sequence TCAATGGA, the binding signal was -0.128 E-score.
In the case of CAGAGCCG it was -0.393 E-score.
In the case of CATGAGCC, the binding signal is -0.173 E-score.
In the case of ATCGACCC it was -0.0066 E-score.
In the case of CGGGAGCA it was -0.268 E-score; in that of CTATCATA, 0.212 E-score.
With TCGGCAGA the figure was -0.13 E-score; with CAGCCTTA, -0.151 E-score; with CTGTTATC, -0.15 E-score.
Regarding CACTGTAG, the binding signal was -0.0439 E-score.
In the case of CTTTGTTC it was -0.112 E-score.
Sequence ACGGTGGC displayed a binding signal of -0.177 E-score.
In the case of AGAGGCGA it was -0.122 E-score; in that of AAGTGGTC, -0.168 E-score.
With CGTTAAAA the figure was 0.104 E-score.
With ATTTTGTC the figure was 0.145 E-score; with CAGGCTCG, -0.237 E-score.
For the sequence ACATTCAG, the binding signal came out at 0.0804 E-score.
With GTCCTGGA the figure was -0.121 E-score; with AACAGCTA, 0.212 E-score; with ACATGGCA, 0.0362 E-score.
With ATGCACAT the figure was 0.141 E-score; with CTTGCGTC, -0.0557 E-score.
